The other results are listed elsewhere or left out. One pool of 16,384 single-stranded DNAs met each Rep nickase domain in vitro at 3 µM enzyme and 37 °C for 1 h; the strands have 90 letters, of which the middle is given. The score is log2 (uncut reads / reads without enzyme); uncut sequences lie near 0, cut ones below; no hit call is given. Shares of all reads are compared; uncut strands gain when others are lost, and binding without cutting may add a little.
Key:
Test in all cases: uncleaved DNA left, log2 of reads against the no-enzyme library (log2 ratio); higher = less cleavage (more negative = more Rep cleavage of the k-mer); sequences stand for … in CTCGTCCG…ACCGGAGA
[1] = test system: T1, Rep nickase domain of Muscovy duck circovirus
T1 sequence (residues 1-111 of Rep, tag left off): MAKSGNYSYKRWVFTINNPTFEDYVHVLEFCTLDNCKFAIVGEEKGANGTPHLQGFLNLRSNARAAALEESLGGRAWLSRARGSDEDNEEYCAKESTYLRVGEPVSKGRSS
Description: (§1)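 A pool of 90-nt single-stranded DNAs with seven random bases just before the constant AC of the nick site (name = the seven bases) was cut by 3 µM recombinant His6-SUMO-tagged Rep nickase domain (300 nM DNA, 50 mM HEPES pH 8.0, 50 mM NaCl, 1 mM MnCl2, 1 h, 37 °C, three replicates). Uncut DNA was amplified and sequenced.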

[2] = test system: T2, Rep nickase domain of banana bunchy top virus
T2 sequence (residues 1-94 of Rep, tag left off): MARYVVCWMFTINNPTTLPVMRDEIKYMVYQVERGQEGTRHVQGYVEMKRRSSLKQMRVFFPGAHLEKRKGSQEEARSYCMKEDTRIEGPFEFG
Description: as §1

[3] = test system: T3, Rep nickase domain of cabbage leaf curl virus
T3 sequence (residues 1-116 of Rep, tag left off): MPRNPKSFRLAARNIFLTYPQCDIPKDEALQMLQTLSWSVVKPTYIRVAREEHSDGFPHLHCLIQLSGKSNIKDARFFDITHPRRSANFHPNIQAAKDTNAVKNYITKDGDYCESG
Description: as §1

[4] = test system: T4, Rep nickase domain of chickpea chlorotic dwarf virus
T4 sequence (residues 1-124 of Rep, tag left off): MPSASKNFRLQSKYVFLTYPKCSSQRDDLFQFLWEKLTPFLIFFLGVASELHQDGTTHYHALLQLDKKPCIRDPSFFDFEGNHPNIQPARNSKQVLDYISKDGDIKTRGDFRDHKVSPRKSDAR
Description: as §1

[5] = test system: T5, Rep nickase domain of faba bean necrotic yellows virus
T5 sequence (residues 1-98 of Rep, tag left off): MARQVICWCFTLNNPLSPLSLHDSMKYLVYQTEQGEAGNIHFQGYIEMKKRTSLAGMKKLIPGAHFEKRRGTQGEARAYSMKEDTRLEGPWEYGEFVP
Description: as §1

[6] = test system: T6, Rep nickase domain of maize striate mosaic virus
T6 sequence (residues 1-117 of Rep, tag left off): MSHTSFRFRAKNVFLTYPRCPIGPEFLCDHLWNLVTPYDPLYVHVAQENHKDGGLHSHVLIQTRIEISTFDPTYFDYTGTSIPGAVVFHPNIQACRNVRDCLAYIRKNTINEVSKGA
Description: as §1

[7] = test system: T7, Rep nickase domain of porcine circovirus 2
T7 sequence (residues 2-116 of Rep, tag left off): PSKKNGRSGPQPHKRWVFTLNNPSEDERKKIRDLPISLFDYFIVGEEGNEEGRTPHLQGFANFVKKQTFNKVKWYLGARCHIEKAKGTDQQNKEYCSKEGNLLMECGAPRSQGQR
Description: as §1

[8] = test system: T8, Rep nickase domain of tomato golden mosaic virus
T8 sequence (residues 1-124 of Rep, tag left off): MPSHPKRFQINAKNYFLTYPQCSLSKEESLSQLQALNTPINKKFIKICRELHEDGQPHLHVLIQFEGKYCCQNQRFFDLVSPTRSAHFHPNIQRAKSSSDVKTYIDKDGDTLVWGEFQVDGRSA
Description: as §1

[9] = test system: T9, Rep nickase domain of tomato yellow leaf curl virus
T9 sequence (residues 1-136 of Rep, tag left off): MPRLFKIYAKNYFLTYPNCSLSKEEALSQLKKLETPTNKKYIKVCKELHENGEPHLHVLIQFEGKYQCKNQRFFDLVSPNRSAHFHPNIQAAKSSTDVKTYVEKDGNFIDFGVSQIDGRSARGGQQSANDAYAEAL
Description: as §1

[10] = test system: T10, Rep nickase domain of wheat dwarf virus
T10 sequence (residues 1-137 of Rep, tag left off): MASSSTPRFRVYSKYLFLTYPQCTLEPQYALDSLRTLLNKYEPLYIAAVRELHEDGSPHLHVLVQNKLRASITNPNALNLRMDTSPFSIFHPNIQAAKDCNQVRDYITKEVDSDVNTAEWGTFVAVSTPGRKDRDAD
Description: as §1

Sequence | uncleaved DNA left (log2) [1] | uncleaved DNA left (log2) [2] | uncleaved DNA left (log2) [3] | uncleaved DNA left (log2) [4] | uncleaved DNA left (log2) [5] | uncleaved DNA left (log2) [6] | uncleaved DNA left (log2) [7] | uncleaved DNA left (log2) [8] | uncleaved DNA left (log2) [9] | uncleaved DNA left (log2) [10]
TGCATAA | -0.021 | 0.0986 | -0.149 | -0.229 | 0.0669 | -0.639 | -0.0658 | 0.0188 | 0.041 | 0.137
CAAAATA | -0.0703 | -0.0389 | -0.572 | -2.67 | -0.097 | -0.767 | -0.0988 | -0.034 | -0.113 | -0.169
CCAGGCA | 0.0928 | 0.0036 | -0.0355 | 0.185 | 0.0186 | -0.554 | 0.0426 | 0.104 | 0.0646 | 0.115
CAATTAC | -0.0929 | -0.132 | -1.6 | -2.96 | -0.117 | -1.15 | -0.132 | -0.263 | -0.0793 | -0.292
ACGGCCA | -0.0832 | -0.0169 | -0.183 | -0.574 | -0.0644 | -0.362 | -0.136 | -0.00262 | -0.0732 | -0.127
ACTGGAA | -0.0847 | -0.091 | -0.126 | 0.442 | 0.0552 | 0.506 | 0.0781 | 0.00474 | -0.103 | -0.0762
AAGTCAA | -0.0215 | 0.00417 | -0.0102 | -0.594 | 0.0253 | -0.257 | -2.64 | 0.0627 | 0.0589 | 0.174
TCGAGTA | -0.0307 | -0.0493 | -0.0359 | -0.199 | 0.0294 | 0.0487 | -0.596 | 0.021 | 0.0156 | -0.0457
AAGTGGT | -0.171 | -0.147 | 0.132 | 1.32 | -0.135 | 1.75 | -3.62 | 0.084 | -0.166 | -0.0676
TTGTCAC | 0.0196 | -0.0674 | 0.0203 | 0.0537 | -0.00394 | -0.676 | -0.149 | -0.157 | 0.106 | 0.026
TGTGGTC | -0.106 | -0.127 | 0.222 | 0.619 | -0.0309 | 0.924 | -0.0295 | -0.125 | -0.0267 | -0.0366
GCATAGG | 0.0362 | 0.0917 | 0.0677 | 0.679 | 0.134 | -0.0525 | 0.288 | 0.17 | 0.136 | 0.0984
GTGAAAC | -0.089 | 0.0366 | 0.275 | 0.897 | -0.0551 | 1.77 | 0.0289 | 0.0973 | -0.0633 | -0.00656
TGAAGCT | -0.00603 | -0.109 | -0.154 | -0.791 | -0.0313 | -0.494 | 0.0644 | -0.0475 | -0.132 | -0.0775
ATCGAAT | -0.0471 | 0.00329 | 0.179 | 0.0589 | 0.0594 | 0.285 | 0.0562 | 0.0608 | 0.0261 | -0.0294

From the supplement of paper PMC7826260
